Source: publication PMC4336329 (PLoS ONE, 2015)
About 14,000 (4.5%) of roughly 310,000 compounds showed an effect of 50% or more. Effects have a minus sign here. Some of the results follow. *1 amine or outer side, *2 acyl side, *3 side chain or, on linkers, in order; H or OH if unused. Where a SMILES comes first, the peptide text is derived from it. Bridges are numbered along the chain shown (N, C = ends). [ ]: non-standard residue; d: D form. ξ: configuration not given here. hSer(Ph(2-I,4-NO2,6-CO)) = O=C([C@H](CCOc1c(I)cc([N+](=O)[O-])cc1C(=O)[*:3])N[*:1])[*:2]; ξD = NC(CC(=O)O)C(=O)O

target: human ether-à-go-go-related gene (hERG) potassium channel (human, UniProt Q12809); experiment: primary screen, population patch clamp on CHO cells stably expressing hERG
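Note: peak tail current of the secondary pulse compared with the same well before compound.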

Sequence of human ether-à-go-go-related gene (hERG) potassium channel (Q12809 whole entry, looked up): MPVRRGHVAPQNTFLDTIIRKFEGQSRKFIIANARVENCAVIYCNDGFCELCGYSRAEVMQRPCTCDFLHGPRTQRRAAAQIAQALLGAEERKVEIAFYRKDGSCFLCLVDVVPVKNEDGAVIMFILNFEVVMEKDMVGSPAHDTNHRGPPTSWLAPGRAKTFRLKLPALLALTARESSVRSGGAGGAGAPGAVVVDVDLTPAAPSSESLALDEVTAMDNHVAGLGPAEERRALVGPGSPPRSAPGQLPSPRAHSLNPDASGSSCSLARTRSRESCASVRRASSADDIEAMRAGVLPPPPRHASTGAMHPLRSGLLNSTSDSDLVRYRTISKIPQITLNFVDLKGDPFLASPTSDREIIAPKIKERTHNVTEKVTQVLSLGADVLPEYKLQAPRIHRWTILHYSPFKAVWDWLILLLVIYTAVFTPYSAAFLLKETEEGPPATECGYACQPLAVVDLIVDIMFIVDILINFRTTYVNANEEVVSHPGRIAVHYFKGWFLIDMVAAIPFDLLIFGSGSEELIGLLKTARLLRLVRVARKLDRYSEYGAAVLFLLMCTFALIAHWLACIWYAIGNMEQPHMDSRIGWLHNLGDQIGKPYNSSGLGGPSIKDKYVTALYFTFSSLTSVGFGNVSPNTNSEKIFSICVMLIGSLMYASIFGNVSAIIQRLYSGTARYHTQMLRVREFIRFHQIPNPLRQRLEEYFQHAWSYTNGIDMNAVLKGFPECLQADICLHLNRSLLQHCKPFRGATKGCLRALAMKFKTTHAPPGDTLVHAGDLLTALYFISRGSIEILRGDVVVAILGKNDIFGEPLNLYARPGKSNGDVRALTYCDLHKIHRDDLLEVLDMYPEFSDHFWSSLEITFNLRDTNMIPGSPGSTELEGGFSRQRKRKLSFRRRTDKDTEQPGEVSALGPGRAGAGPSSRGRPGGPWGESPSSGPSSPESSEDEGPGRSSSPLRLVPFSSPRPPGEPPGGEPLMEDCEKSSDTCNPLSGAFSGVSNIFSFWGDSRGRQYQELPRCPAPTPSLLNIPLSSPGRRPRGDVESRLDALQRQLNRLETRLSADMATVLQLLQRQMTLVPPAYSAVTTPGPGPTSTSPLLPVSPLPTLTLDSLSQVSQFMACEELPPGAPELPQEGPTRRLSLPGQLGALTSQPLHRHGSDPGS

| Structure (SMILES) | hERG current change (%, negative = inhibition) at 10uM |
| --- | --- |
| COC(=O)Cc1c(C)c2ccc(O)c(CN3CCCC(C)C3)c2oc1=O (stereo not drawn) | 5.43% |
| CCOc1ccccc1NC(=O)CSc1nc2c(c(=O)n(C)c(=O)n2C)n1C | 4.67% |
| O=C(COC(=O)c1cccc(OC(F)F)c1)NC1CCCC1 | -9.43% |
| Cc1cc(S(=O)(=O)N2CCOCC2)ccc1OCC(=O)Nc1ccccc1F | 18.9% |
| O=C(/C=C/c1ccccc1)NCc1ccco1 | 15.1% |
| C/C(=N\OCC(=O)OCC(=O)N(Cc1ccccc1)C(C)(C)C)c1ccc2c(c1)OCO2 | 15.1% |
| C[C@@H]1NC(=O)c2cc([N+](=O)[O-])cc(I)c2OCC[C@@H](C(=O)NC(CC(=O)O)C(N)=O)NC(=O)[C@H](CC(N)=O)NC1=O (stereo partly drawn) (AN[hSer(Ph(2-I,4-NO2,6-CO))][ξD]-NH2; lactam N-3) | 30.2% |
| CCc1cc(C(=O)OCC(=O)N2CCC(c3ccccc3)=N2)sc1C | 21.1% |
| CC(C)Sc1nnc(NC(=O)C2CC2)s1 | -2.93% |
| O=C(COC(=O)c1ccccc1C(=O)OCC(=O)NCCc1c[nH]c2ccccc12)NCCc1c[nH]c2ccccc12 | -2.91% |
| CCCOC(=O)c1ccc(Cl)c(NC(=O)c2ccc(-c3ccccc3)cc2)c1 | -5.63% |
| Fc1cc(F)cc(Nc2nc(Cl)nc(NC3CCCC3)n2)c1 | 8.89% |
| Cc1ccccc1CNS(=O)(=O)c1ccc2c(c1)OCCO2 | -27% |
| Cc1ccc(C(=O)O/N=C2\CC3CCC2(C)C3(C)C)cc1 (stereo not drawn) | -9.45% |
| CC1CCCN(C(=O)CSc2nnc(-c3ccc(O)cc3)o2)C1 (stereo not drawn) | 12% |
| C=CCn1c(=S)[nH]c2nc3c(cc2c1=O)CCCC3 | -1.63% |
| N#CNC(=Nc1ccc(F)cc1)SCc1ccccc1 | -8.34% |
| Cn1c(=O)[nH]c(=O)c2c1nc([N+](=O)[O-])n2Cc1ccccc1 | 1.08% |
| Clc1ccccc1CSc1snnc1-c1ccccc1 | 0.469% |
| C=C1CCC2C(C)(C)[C@H](O)CC[C@@]2(C)[C@@H]1COc1cc(=O)oc2ccccc12 (stereo partly drawn) | -11.5% |
| O=C(Nc1ccccn1)C1(c2ccccc2)CCCC1 | -3.92% |
| COc1ccccc1NC(=O)CSc1nc2[nH]ncc2c(=O)[nH]1 | 6.31% |
| CCN(C(=O)CSc1nnc(-c2ccc3c(c2)OCO3)o1)C1CCS(=O)(=O)C1 (stereo not drawn) | 3.88% |
| COc1cccc(CNC(=O)CCC2CCCN(C(=O)C3=CC(=O)CC(C)(C)O3)C2)c1 (stereo not drawn) | 15.9% |
| CCCC(=O)C1C(=O)CC(C)(C)C(c2cc(C)no2)C1=O (stereo not drawn) | -6.76% |
| CCC(C)NC(=O)C1CCC(CNS(=O)(=O)c2cccc3nsnc23)CC1 (stereo not drawn) | 11% |
| O=C(NC1CCCCC1)C(c1ccco1)N(C(=O)C(F)(F)F)C1CC1 (stereo not drawn) | -4.69% |

| Structure (SMILES) | hERG current change (%, negative = inhibition) at 10uM |
| --- | --- |
| COc1ccc(C(=O)Nc2ccc(S(=O)(=O)N3CCN(C)CC3)cc2)cc1[N+](=O)[O-] | 6.49% |
| CC12CCC(c3nnc(SCC(=O)Nc4cccc5ccccc45)nc31)C2(C)C (stereo not drawn) | -17.9% |
| Cn1c(=O)[nH]c(=O)c2c1nc(Br)n2CCCCSc1nc2ccccc2o1 | -55.6% |
| O=C(Cn1nc(-c2ccco2)ccc1=O)Nc1cc(C(F)(F)F)ccc1Cl | 7.12% |
| S=c1[nH]c2cc(Cl)ccc2s1 | 15.4% |
| CN(Cc1ccccc1)S(=O)(=O)c1ccc(NC(=S)NC(=O)C2CCCCC2)cc1 | -0.702% |
| Cc1cc(C)n2nc(-c3ccc(Br)cc3)cc2n1 | 13.3% |
| CCOC(=O)C1=C(O)/C(=C\c2cc(C)n(-c3ccccc3F)c2C)N=C1C | 6.21% |
| COCCNC(=O)CSc1c2c(nc3ccc(Cl)cc13)CCCC2 | -6.9% |
| COc1ccc2cc3cc(C(=O)N(C)C4CCCCC4)oc3nc2c1 | -5.7% |
| CCOc1ccccc1/C=C(/NC(=O)c1ccccc1)C(=O)NCC(=O)O | 9.68% |
| O=C1COc2ccc(C(=O)COC(=O)Cn3cnc4ccccc43)cc2N1 | -5.03% |
| Cn1c(=O)oc2cc(S(=O)(=O)NCCC(=O)NCc3ccc(F)cc3)ccc21 | 12.5% |
| CCCCc1nn(-c2cc(Cl)ccc2OC)c2c1C(=O)CCC2 | -26.3% |
| CCCCNC(=S)N/N=C/c1cccc(OCC)c1O | 6.37% |
| CCC1CCCCN1C(=O)CSc1nnc(CNC(=O)c2c(F)cccc2Cl)o1 (stereo not drawn) | 10.7% |
| Cc1ccc(-c2[nH]ncc2/C=N/n2c(C)nc3ccccc3c2=O)cc1 | 4.46% |
| O=C(COC(=O)Cc1n[nH]c(=O)c2ccccc12)Nc1cccc(C(F)(F)F)c1 | -13.5% |
| CSCCC(NC(=O)OC(C)(C)C)C(=O)Oc1ccc2c(=O)c(-c3ccc4c(c3)OCCO4)coc2c1 (stereo not drawn) | 3.94% |
| COc1ccc(C(CNC(=O)C(=O)Nc2ccc3c(c2)OCCO3)N2CCN(C)CC2)cc1 (stereo not drawn) | -45.1% |
| CCOc1ccc(S(=O)(=O)N/N=C(\C)c2ccc(OC)cc2OC)cc1 | -3.21% |
| O=C1CC(C(=O)Nc2nccs2)C(c2ccccc2)O1 (stereo not drawn) | -5.66% |
| CCc1nnc(NC(=O)C2CC(=O)N(CCc3ccccc3)C2)s1 (stereo not drawn) | 8.08% |
| CC1=NN(C(=O)c2ccccc2Br)C(O)(c2ccc(Cl)cc2)C1 (stereo not drawn) | 18.7% |
| CCOc1ccc(-n2nc(C(=O)NCCOC)c3ccccc3c2=O)cc1 | 8.27% |
| COc1ccc(-c2cc(C(F)(F)F)n3nc(C(=O)N4CCN5CCCC5C4)cc3n2)cc1OC (stereo not drawn) | -64.4% |
| CC(=O)Nc1ccccc1NC(=O)C/C(C)=N/NC(=O)Cc1cccc2ccccc12 | 10.8% |
